Source: a compilation of properties of binary mixtures (doi:10.1016/j.molliq.2019.03.144)
The densities may have been worked out from excess volumes.

Assay: xn = mol fraction of the nth substance listed
Details: 96.7 kPa

c1ccncc1 + CC(=O)[O-].CC[n+]1ccn(C)c1 showed a mass density (303.15 K, x2 = 0) of 973 kg/m3, a mass density (313.15 K, x2 = 0) of 963 kg/m3 and a mass density (323.15 K, x2 = 0) of 952.8 kg/m3. The mass density (333.15 K, x2 = 0) was 942.7 kg/m3, the mass density (343.15 K, x2 = 0) was 932.4 kg/m3 and the mass density (353.15 K, x2 = 0) was 922.1 kg/m3.
For CC(=O)[O-].CC[n+]1ccn(C)c1 + c1ccncc1, the mass density (303.15 K, x1 = 0.166) was 1015.5 kg/m3, the mass density (303.15 K, x1 = 0.318) was 1040.8 kg/m3 and the mass density (303.15 K, x1 = 0.52) was 1064.5 kg/m3. It also gave a mass density (303.15 K, x1 = 0.649) of 1075.4 kg/m3, a mass density (303.15 K, x1 = 0.806) of 1086.3 kg/m3 and a mass density (303.15 K, x1 = 0.898) of 1091.8 kg/m3. It also gave a mass density (303.15 K, x1 = 1) of 1097.2 kg/m3, a mass density (308.15 K, x1 = 0.318) of 1037 kg/m3 and a mass density (308.15 K, x1 = 0.411) of 1049.1 kg/m3. It also gave a mass density (308.15 K, x1 = 0.649) of 1072.2 kg/m3, a mass density (308.15 K, x1 = 1) of 1094.2 kg/m3 and a mass density (313.15 K, x1 = 0.166) of 1007 kg/m3. For the same compound, the mass density (313.15 K, x1 = 0.318) was 1033.1 kg/m3, the mass density (313.15 K, x1 = 0.411) was 1045.5 kg/m3 and the mass density (313.15 K, x1 = 0.52) was 1057.7 kg/m3. The mass density (313.15 K, x1 = 0.649) was 1068.9 kg/m3, the mass density (313.15 K, x1 = 0.806) was 1080 kg/m3 and the mass density (313.15 K, x1 = 0.898) was 1085.7 kg/m3. The mass density (313.15 K, x1 = 1) was 1091.2 kg/m3, the mass density (318.15 K, x1 = 0.166) was 1002.8 kg/m3 and the mass density (318.15 K, x1 = 0.318) was 1029.3 kg/m3. For the same compound, the mass density (318.15 K, x1 = 0.411) was 1041.9 kg/m3, the mass density (318.15 K, x1 = 0.52) was 1054.3 kg/m3 and the mass density (318.15 K, x1 = 0.649) was 1065.7 kg/m3. For the same compound, the mass density (318.15 K, x1 = 0.806) was 1076.9 kg/m3, the mass density (318.15 K, x1 = 0.898) was 1082.6 kg/m3 and the mass density (318.15 K, x1 = 1) was 1088.2 kg/m3. For the same compound, the mass density (323.15 K, x1 = 0.166) was 998.5 kg/m3, the mass density (323.15 K, x1 = 0.318) was 1025.5 kg/m3 and the mass density (323.15 K, x1 = 0.411) was 1038.3 kg/m3. It also gave a mass density (323.15 K, x1 = 0.649) of 1062.4 kg/m3, a mass density (323.15 K, x1 = 0.806) of 1073.8 kg/m3 and a mass density (323.15 K, x1 = 1) of 1085.2 kg/m3. It also gave a mass density (328.15 K, x1 = 0.166) of 994.3 kg/m3, a mass density (328.15 K, x1 = 0.411) of 1034.7 kg/m3 and a mass density (328.15 K, x1 = 0.52) of 1047.5 kg/m3. For the same compound, the mass density (328.15 K, x1 = 0.649) was 1059.2 kg/m3, the mass density (328.15 K, x1 = 0.898) was 1076.6 kg/m3 and the mass density (328.15 K, x1 = 1) was 1082.2 kg/m3. It also gave a mass density (333.15 K, x1 = 0.166) of 990.1 kg/m3, a mass density (333.15 K, x1 = 0.411) of 1031.2 kg/m3 and a mass density (333.15 K, x1 = 0.52) of 1044.2 kg/m3. It also gave a mass density (333.15 K, x1 = 0.806) of 1067.7 kg/m3, a mass density (333.15 K, x1 = 0.898) of 1073.5 kg/m3 and a mass density (338.15 K, x1 = 0.166) of 985.8 kg/m3. It also gave a mass density (338.15 K, x1 = 0.411) of 1027.6 kg/m3, a mass density (338.15 K, x1 = 0.52) of 1040.8 kg/m3 and a mass density (338.15 K, x1 = 0.649) of 1052.8 kg/m3. For the same compound, the mass density (338.15 K, x1 = 0.806) was 1064.6 kg/m3, the mass density (338.15 K, x1 = 0.898) was 1070.5 kg/m3 and the mass density (338.15 K, x1 = 1) was 1076.3 kg/m3. It also gave a mass density (343.15 K, x1 = 0.318) of 1010.6 kg/m3, a mass density (343.15 K, x1 = 0.52) of 1037.4 kg/m3 and a mass density (343.15 K, x1 = 0.806) of 1061.6 kg/m3. It also gave a mass density (343.15 K, x1 = 0.898) of 1067.6 kg/m3, a mass density (348.15 K, x1 = 0.166) of 977.3 kg/m3 and a mass density (348.15 K, x1 = 0.318) of 1006.9 kg/m3. The mass density (348.15 K, x1 = 0.411) was 1020.5 kg/m3, the mass density (348.15 K, x1 = 0.52) was 1034.1 kg/m3 and the mass density (348.15 K, x1 = 0.649) was 1046.4 kg/m3. The mass density (348.15 K, x1 = 0.806) was 1058.5 kg/m3, the mass density (348.15 K, x1 = 0.898) was 1064.6 kg/m3 and the mass density (348.15 K, x1 = 1) was 1070.5 kg/m3. The mass density (353.15 K, x1 = 0.166) was 973 kg/m3, the mass density (353.15 K, x1 = 0.411) was 1016.9 kg/m3 and the mass density (353.15 K, x1 = 0.52) was 1030.7 kg/m3. The mass density (353.15 K, x1 = 0.649) was 1043.2 kg/m3, the mass density (353.15 K, x1 = 0.806) was 1055.5 kg/m3 and the mass density (353.15 K, x1 = 0.898) was 1061.6 kg/m3. The mass density (353.15 K, x1 = 1) was 1067.6 kg/m3.
